Some of these densities may be calculated back from excess volumes.

Data on 2 molecules can be found in a compilation of properties of binary mixtures (doi:10.1021/acs.jpcb.0c04870).

The series is described as follows: xn = mol fraction of the nth substance listed. The settings on record: 293 K, 100 kPa.

`CCCCCCCCn1cc[n+](C)c1.F[B-](F)(F)F` + CS(C)=O: the mass density came to 1101 kg/m3 (x1 = 0.01); 1102 kg/m3 (x1 = 0.03); 1103 kg/m3 (x1 = 0.05); 1104 kg/m3 (x1 = 0.1); 1104 kg/m3 (x1 = 0.2); 1106 kg/m3 (x1 = 0.3). In addition, the mass density by setting is: (x1 = 0.4) 1106 kg/m3; (x1 = 0.6) 1107 kg/m3; (x1 = 0.8) 1108 kg/m3.
With `CS(C)=O` + CCCCCCCCn1cc[n+](C)c1.F[B-](F)(F)F, the mass density (x2 = 0) turned out to be 1101 kg/m3.

The mass density is the mass of a sample divided by its volume.
